Experimental data taken from PubChem BioAssay AID686979 (National Center for Advancing Translational Sciences (NCATS), 2013).
“And” between values parts separate entries of the source, which are not always exact repeats. Equal values may be shown once. About 50,000 (12%) of roughly 420,000 compounds were called active. Inconclusive results, whose numbers are uncertain, are shown with a selection of clear calls. Calls follow the shape of the dose curve; as a rule, active = well fitted inhibition curve with a large enough effect; inconclusive = small, poorly fitted or top-dose-only effect; inactive = flat fitted curve, though single readings scatter. Potencies beside an inconclusive call are fits to weak or partial responses and may not hold up. The source holds several records for some structures; these can differ, active in one and inactive in another.

experiment: qHTS for Inhibitors of human tyrosyl-DNA phosphodiesterase 1 (TDP1): qHTS in cells in presence of CPT; details: chicken DT40 Tdp1-/-;hTDP1 cells + 20 nM CPT, ATP luminescence, 48 h; activity change, negative = growth inhibition: at 46.2 µM (top of the series) unless noted; also: nearly all actives have a fitted effect of over 55% in size
In short: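 Chicken DT40 Tdp1-/- cells stably complemented with human TDP1 were seeded at 400 cells/well in medium containing 20 nM camptothecin, exposed to pin-transferred compounds, and grown at 37 °C for at least 48 hr. Viability was read as ATP luminescence.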
% is scaled to controls: 0 for no effect and ±100 for the full control effect; potency is read from the fitted curve at half-maximal effect; tags tell the direction and shape of the fitted curve.

SMILES	activity change, negative = growth inhibition	Potency
Cc1nc(C)c(C(=O)Nc2cccc(F)c2)s1	inactive: -14.2%	
CCN1CCN(C(=O)C2CCCN(c3ncnc4c3nc3n4CCCCC3)C2)CC1 (stereo not given)	inactive: 4.25%	
CN1C2C=C3C(C#N)=C(N)C(C#N)(C#N)C(c4ccc(Br)cc4)C3C1CC2 (stereo not given)		inconclusive: 23.1 µM [inhibitor, single point]
Cc1cccc(-c2nnc(SCc3nc4ccccc4[nH]3)n2Cc2ccco2)c1		inconclusive: 23.1 µM [inhibitor, single point]
CCOc1ccc(OCC)c(NC(=O)c2cnc3c(-c4ccccc4)c(C)nn3c2C)c1		inconclusive: 23.1 µM [inhibitor, single point]
Cc1ccc(S(=O)(=O)NCC2CCC(C(=O)NCc3ccc4c(c3)OCO4)CC2)cc1 (stereo not given)		inconclusive: 18.4 µM [inhibitor, single point]
O=[N+]([O-])c1cc(S(=O)(=O)N2CCCC2)ccc1NN=C1CCCCC1	inactive: -14.6%	
CCOc1cccc(N(C(=O)C2COc3ccccc3O2)C(C(=O)NC2CCCCC2)c2ccc(O)cc2)c1 (stereo not given)	inactive: -14.5%	
CCOC(=O)CN(C)C(=O)CCc1nnc(-c2ccc(-c3ccccc3)cc2)o1		inconclusive: 25.9 µM [inhibitor, single point]
CCCn1c(C)nc2cc(Cl)c(N3CCN(c4nc(-c5ccc(C)cc5)cs4)CC3)cc21		inconclusive: 29.1 µM [inhibitor, single point]
CCOC(=O)c1c(NC(=O)CSc2nc3ccccc3[nH]2)sc2c1CC(C)(C)NC2(C)C		inconclusive: 23.1 µM [inhibitor, single point]
CC(C)Cc1ccc(S(=O)(=O)Nc2ccc3[nH]c(=O)[nH]c3c2)cc1		active: 16.4 µM
CCN1CCN(CC(=O)Nc2cccc(C)c2C)C(=O)C1=O		active: 2.31 µM
COc1cc(C(O)c2nc3ccccc3s2)cc(OC)c1OC (stereo not given)		active: 4.11 µM
C[C@@H](NC(=O)c1nc[nH]c1C(=O)NC1CCN(C(=O)OC(C)(C)C)CC1)c1ccccc1		inconclusive: 18.4 µM [inhibitor, single point]
O=[N+]([O-])c1ccc(C(O)CN=Cc2ccc(O)cc2O)cc1 (stereo not given)		active: 23.1 µM
CC1(C)ON(C2CCCCC2)[C@H]2c3nc4ccccc4n3C[C@H]21	inactive: -21.4%	
CCOc1cc(/C=C/C(=O)O)ccc1OCCO		active: 13 µM
O=c1c2oc3ccccc3c2n(Cc2cccc(Cl)c2)c(=O)n1Cc1ccc2c(c1)OCO2	inactive: -22.3%	
CCC(C)(C(=O)NC1CCCC1)N(Cc1ccco1)C(=O)c1ccccn1 (stereo not given)	inactive: -18.5%	
CC(C)OC(=O)c1ccc2ccc(-c3ccccc3)nc2c1		inconclusive: 29.1 µM [inhibitor, single point]
C[C@@]12C(=O)Nc3cc(F)ccc3C(=O)N1[C@H]1c3ccccc3OC[C@@H]1[C@@H]2c1ccccc1		inconclusive: 29.1 µM [inhibitor, single point]
Cc1cc2ccccn2c1C(=O)Nc1ccc(Cl)cc1	inactive: -14.1%	

SMILES	activity change, negative = growth inhibition	Potency
Cc1ccc(-n2c(=O)c3c(c4cc(C)ccc4n3C)n(CC(=O)NCCC3=CCCCC3)c2=O)cc1	inactive: -9.03%	
O=C(CSc1nc(-c2ccc(F)cc2)cs1)NCC1CCCO1 (stereo not given)	inactive: -27.5%	
COc1ccc(OC)c(NC(=O)c2c(NC(=O)CCC(=O)O)sc3c2CCCCC3)c1		inconclusive: 25.9 µM [inhibitor, single point]
COc1ccc(NC(=O)C2(C)Cc3c(-c4ccc(NC(C)=O)cc4)ccnc3O2)cc1 (stereo not given)		inconclusive: 16.4 µM [inhibitor, partial curve]
COC(=O)c1cc2oc(C)cc2n1Cc1cccc(Cl)c1		inconclusive: 13 µM [inhibitor, single point]
O=C(COC(=O)c1ccc(C(F)(F)F)cc1)Nc1cccc(S(=O)(=O)N2CCCCC2)c1	inactive: -19.5%	
COc1ccc(-c2sc3cc4c(cc3c2C#Cc2cncn2C)OCO4)cc1		active: 25.9 µM
O=C(NCc1cccc(Cl)c1)c1ccc(CS(=O)Cc2ccccc2Cl)o1 (stereo not given)		inconclusive: 25.9 µM [inhibitor, single point] and inconclusive: 29.1 µM [inhibitor, single point]
O=C1C2C3C=CC(C3)C2C(=O)N1c1ccc(Cc2ccncc2)cc1 (stereo not given)		inconclusive: 18.4 µM [inhibitor, partial curve]
Cc1cc(C)c2c(N)c(C(=O)Nc3ccccc3Br)sc2n1	inactive: -29%	
Nn1cc(-c2ccccc2)nc1SCC(=O)Nc1ccc(S(N)(=O)=O)cc1	inactive: -3.78%	
CCc1ccc(NC(=O)C2CCN(S(=O)(=O)c3cccs3)CC2)cc1		inconclusive: 23.1 µM [inhibitor, single point]
c1ccc(-c2ccc(SCc3cccnc3)nn2)nc1		inconclusive: 29.1 µM [inhibitor, single point]
CCOC(=O)N1CCN(C(=O)c2cn(C)c3ccc(S(=O)(=O)N(CC)CC)cc3c2=O)CC1	inactive: -4.93%	
O=C(CSc1n[nH]c(-c2ccccn2)n1)Nc1ccccc1F		active: 4.11 µM
COc1ccccc1OCC(=O)NCC1(N2CCOCC2)CCCCC1		inconclusive: 29.1 µM [inhibitor, single point]
CC(C)(C=O)Cc1cc(C(C)(C)C)c(O)c(C(C)(C)C)c1		inconclusive: 18.4 µM [inhibitor, single point]
Oc1c(C(c2cccs2)N2CCN(c3cccc(Cl)c3)CC2)sc2ncnn12 (stereo not given)		inconclusive: 25.9 µM [inhibitor, single point]
C=CCOc1ccc(Cl)cc1CNCCCN1CCOCC1	inactive: -16.9%	
O=C(Nc1ccccc1)c1ccc(S(=O)(=O)Nc2cccc(O)c2)cc1		inconclusive: 18.4 µM [inhibitor, partial curve]
O=C(c1ccc(F)cc1)c1c[nH]c(C(=O)NCc2ccco2)c1		inconclusive: 11.6 µM [inhibitor, partial curve]
CCN1C[C@@H]2[C@@H]3C(=O)N(Cc4ccccc4)C(=O)[C@@H]3[C@](Cc3ccccc3)(C1=O)N2C(=O)c1ccc(Cl)cc1		inconclusive: 25.9 µM [inhibitor, single point]
